In the supplement of paper PMC8728848:
The list shows a part of the results.

Legend:
Test in all cases: glycan array binding signal (z-score within array); higher = stronger binding
Conditions in all cases: glycan notation: IUPAC condensed, linker removed
[1] = target: GlcNAc(a1-6)Gal(b1-4)GlcNAc
Procedure, shortened: (§1)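 From the Consortium for Functional Glycomics database, 3228 arrays were curated, keeping only those whose protein sequence was available. Binding is given as a within-array Z-score averaged across arrays sharing a protein sequence and across linkers. Negative Z-scores can be read as non-binding.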

[2] = target: GlcNAc(b1-2)Gal(b1-3)GalNAc
Procedure, shortened: as §1

[3] = target: GlcNAc(b1-2)Man(a1-3)[GlcNAc(b1-2)Man(a1-6)]Man(b1-4)GlcNAc(b1-4)GlcNAc
Procedure, shortened: as §1

[4] = target: GlcNAc(b1-2)Man(a1-3)[GlcNAc(b1-2)Man(a1-6)]Man(b1-4)GlcNAc(b1-4)[Fuc(a1-6)]GlcNAc
Procedure, shortened: as §1

[5] = target: GlcNAc(b1-2)Man(a1-3)[GlcNAc(b1-4)][GlcNAc(b1-2)Man(a1-6)]Man(b1-4)GlcNAc(b1-4)GlcNAc
Procedure, shortened: as §1

[6] = target: GlcNAc(b1-2)Man(a1-3)[GlcNAc(b1-4)][GlcNAc(b1-2)Man(a1-6)]Man(b1-4)GlcNAc(b1-4)[Fuc(a1-6)]GlcNAc
Procedure, shortened: as §1

[7] = target: GlcNAc(b1-2)[GlcNAc(b1-4)]Man(a1-3)[GlcNAc(b1-2)Man(a1-6)]Man(b1-4)GlcNAc(b1-4)GlcNAc
Procedure, shortened: as §1

[8] = target: GlcNAc(b1-2)[GlcNAc(b1-4)]Man(a1-3)[GlcNAc(b1-4)][GlcNAc(b1-2)Man(a1-6)]Man(b1-4)GlcNAc(b1-4)GlcNAc
Procedure, shortened: as §1

[9] = target: GlcNAc(b1-2)[GlcNAc(b1-4)]Man(a1-3)[GlcNAc(b1-4)][GlcNAc(b1-2)[GlcNAc(b1-6)]Man(a1-6)]Man(b1-4)GlcNAc(b1-4)GlcNAc
Procedure, shortened: as §1

[10] = target: GlcNAc(b1-2)[GlcNAc(b1-4)]Man(a1-3)[GlcNAc(b1-4)][GlcNAc(b1-2)[GlcNAc(b1-6)]Man(a1-6)]Man(b1-4)GlcNAc(b1-4)[Fuc(a1-6)]GlcNAc
Procedure, shortened: as §1

[11] = target: GlcNAc(b1-2)[GlcNAc(b1-6)]Man(a1-6)[GlcNAc(b1-2)Man(a1-3)]Man(b1-4)GlcNAc(b1-4)GlcNAc
Procedure, shortened: as §1

[12] = target: GlcNAc(b1-2)[GlcNAc(b1-6)]Man(a1-6)[GlcNAc(b1-2)Man(a1-3)]Man(b1-4)GlcNAc(b1-4)[Fuc(a1-6)]GlcNAc
Procedure, shortened: as §1

[13] = target: GlcNAc(b1-2)[GlcNAc(b1-6)]Man(a1-6)[GlcNAc(b1-4)][GlcNAc(b1-2)Man(a1-3)]Man(b1-4)GlcNAc(b1-4)GlcNAc
Procedure, shortened: as §1

[14] = target: GlcNAc(b1-3)Fuc
Procedure, shortened: as §1

[15] = target: GlcNAc(b1-3)Gal
Procedure, shortened: as §1

[16] = target: GlcNAc(b1-3)Gal(b1-3)GalNAc
Procedure, shortened: as §1

[17] = target: GlcNAc(b1-3)Gal(b1-4)Glc
Procedure, shortened: as §1

[18] = target: GlcNAc(b1-3)Gal(b1-4)GlcNAc
Procedure, shortened: as §1

[19] = target: GlcNAc(b1-3)Gal(b1-4)GlcNAc(b1-2)Man(a1-3)[GlcNAc(b1-3)Gal(b1-4)GlcNAc(b1-2)Man(a1-6)]Man(b1-4)GlcNAc(b1-4)GlcNAc
Procedure, shortened: as §1

[20] = target: GlcNAc(b1-3)Gal(b1-4)GlcNAc(b1-2)Man(a1-3)[GlcNAc(b1-3)Gal(b1-4)GlcNAc(b1-2)Man(a1-6)]Man(b1-4)GlcNAc(b1-4)[Fuc(a1-6)]GlcNAc
Procedure, shortened: as §1

[21] = target: GlcNAc(b1-3)Gal(b1-4)GlcNAc(b1-2)[GlcNAc(b1-3)Gal(b1-4)GlcNAc(b1-6)]Man(a1-6)[GlcNAc(b1-3)Gal(b1-4)GlcNAc(b1-2)Man(a1-3)]Man(b1-4)GlcNAc(b1-4)GlcNAc
Procedure, shortened: as §1

[22] = target: GlcNAc(b1-3)Gal(b1-4)GlcNAc(b1-3)Gal(b1-4)GlcNAc
Procedure, shortened: as §1

[23] = target: GlcNAc(b1-3)Gal(b1-4)GlcNAc(b1-3)Gal(b1-4)GlcNAc(b1-2)Man(a1-3)[GlcNAc(b1-3)Gal(b1-4)GlcNAc(b1-3)Gal(b1-4)GlcNAc(b1-2)Man(a1-6)]Man(b1-4)GlcNAc(b1-4)GlcNAc
Procedure, shortened: as §1

[24] = target: GlcNAc(b1-3)Gal(b1-4)GlcNAc(b1-3)Gal(b1-4)GlcNAc(b1-2)Man(a1-3)[GlcNAc(b1-3)Gal(b1-4)GlcNAc(b1-3)Gal(b1-4)GlcNAc(b1-2)Man(a1-6)]Man(b1-4)GlcNAc(b1-4)[Fuc(a1-6)]GlcNAc
Procedure, shortened: as §1

[25] = target: GlcNAc(b1-3)Gal(b1-4)GlcNAc(b1-3)Gal(b1-4)GlcNAc(b1-2)[GlcNAc(b1-3)Gal(b1-4)GlcNAc(b1-3)Gal(b1-4)GlcNAc(b1-6)]Man(a1-6)[GlcNAc(b1-3)Gal(b1-4)GlcNAc(b1-3)Gal(b1-4)GlcNAc(b1-2)Man(a1-3)]Man(b1-4)GlcNAc(b1-4)[Fuc(a1-6)]GlcNAc
Procedure, shortened: as §1

[26] = target: GlcNAc(b1-3)Gal(b1-4)GlcNAc(b1-3)Gal(b1-4)GlcNAc(b1-3)Gal(b1-4)GlcNAc(b1-2)Man(a1-3)[GlcNAc(b1-3)Gal(b1-4)GlcNAc(b1-3)Gal(b1-4)GlcNAc(b1-3)Gal(b1-4)GlcNAc(b1-2)Man(a1-6)]Man(b1-4)GlcNAc(b1-4)GlcNAc
Procedure, shortened: as §1

[27] = target: GlcNAc(b1-3)Gal(b1-4)GlcNAc(b1-3)Gal(b1-4)GlcNAc(b1-3)Gal(b1-4)GlcNAc(b1-2)Man(a1-3)[GlcNAc(b1-3)Gal(b1-4)GlcNAc(b1-3)Gal(b1-4)GlcNAc(b1-3)Gal(b1-4)GlcNAc(b1-2)Man(a1-6)]Man(b1-4)GlcNAc(b1-4)[Fuc(a1-6)]GlcNAc
Procedure, shortened: as §1

[28] = target: GlcNAc(b1-3)Gal(b1-4)GlcNAc(b1-3)Gal(b1-4)GlcNAc(b1-3)Gal(b1-4)GlcNAc(b1-2)[GlcNAc(b1-3)Gal(b1-4)GlcNAc(b1-3)Gal(b1-4)GlcNAc(b1-3)Gal(b1-4)GlcNAc(b1-6)]Man(a1-6)[GlcNAc(b1-3)Gal(b1-4)GlcNAc(b1-3)Gal(b1-4)GlcNAc(b1-3)Gal(b1-4)GlcNAc(b1-2)Man(a1-3)]Man(b1-4)GlcNAc(b1-4)[Fuc(a1-6)]GlcNAc
Procedure, shortened: as §1

[29] = target: GlcNAc(b1-3)Gal(b1-4)GlcNAc(b1-3)Gal(b1-4)GlcNAc(b1-3)Gal(b1-4)GlcNAc(b1-3)Gal(b1-4)GlcNAc(b1-2)Man(a1-3)[GlcNAc(b1-3)Gal(b1-4)GlcNAc(b1-3)Gal(b1-4)GlcNAc(b1-3)Gal(b1-4)GlcNAc(b1-3)Gal(b1-4)GlcNAc(b1-2)Man(a1-6)]Man(b1-4)GlcNAc(b1-4)GlcNAc
Procedure, shortened: as §1

[30] = target: GlcNAc(b1-3)Gal(b1-4)GlcNAc(b1-3)Gal(b1-4)GlcNAc(b1-3)Gal(b1-4)GlcNAc(b1-3)Gal(b1-4)GlcNAc(b1-2)Man(a1-3)[GlcNAc(b1-3)Gal(b1-4)GlcNAc(b1-3)Gal(b1-4)GlcNAc(b1-3)Gal(b1-4)GlcNAc(b1-3)Gal(b1-4)GlcNAc(b1-2)Man(a1-6)]Man(b1-4)GlcNAc(b1-4)[Fuc(a1-6)]GlcNAc
Procedure, shortened: as §1

[31] = target: GlcNAc(b1-3)Gal(b1-4)GlcNAc(b1-3)Gal(b1-4)GlcNAc(b1-3)Gal(b1-4)GlcNAc(b1-3)Gal(b1-4)GlcNAc(b1-2)[GlcNAc(b1-3)Gal(b1-4)GlcNAc(b1-3)Gal(b1-4)GlcNAc(b1-3)Gal(b1-4)GlcNAc(b1-3)Gal(b1-4)GlcNAc(b1-6)]Man(a1-6)[GlcNAc(b1-3)Gal(b1-4)GlcNAc(b1-3)Gal(b1-4)GlcNAc(b1-3)Gal(b1-4)GlcNAc(b1-3)Gal(b1-4)GlcNAc(b1-2)Man(a1-3)]Man(b1-4)GlcNAc(b1-4)[Fuc(a1-6)]GlcNAc
Procedure, shortened: as §1

[32] = target: GlcNAc(b1-3)Gal(b1-4)GlcNAc(b1-3)Gal(b1-4)GlcNAc(b1-3)GalNAc
Procedure, shortened: as §1

[33] = target: GlcNAc(b1-3)Gal(b1-4)GlcNAc(b1-3)GalNAc
Procedure, shortened: as §1

[34] = target: GlcNAc(b1-3)Gal(b1-4)GlcNAc(b1-3)[GlcNAc(b1-3)Gal(b1-4)GlcNAc(b1-3)]GalNAc
Procedure, shortened: as §1

[35] = target: GlcNAc(b1-3)Gal(b1-4)GlcNAc(b1-6)[Gal(b1-3)]GalNAc
Procedure, shortened: as §1

[36] = target: GlcNAc(b1-3)Gal(b1-4)GlcNAc(b1-6)[GlcNAc(b1-3)Gal(b1-3)]GalNAc
Procedure, shortened: as §1

[37] = target: GlcNAc(b1-3)Gal(b1-4)GlcNAc(b1-6)[GlcNAc(b1-3)]Gal(b1-4)GlcNAc
Procedure, shortened: as §1

[38] = target: GlcNAc(b1-3)GalNAc
Procedure, shortened: as §1

[39] = target: GlcNAc(b1-3)Man
Procedure, shortened: as §1

[40] = target: GlcNAc(b1-3)[GlcNAc(b1-4)][GlcNAc(b1-6)]GlcNAc
Procedure, shortened: as §1

[41] = target: GlcNAc(b1-3)[GlcNAc(b1-6)]Gal(b1-4)GlcNAc
Procedure, shortened: as §1

[42] = target: GlcNAc(b1-3)[GlcNAc(b1-6)]GalNAc
Procedure, shortened: as §1

[43] = target: GlcNAc(b1-4)Gal(b1-4)GlcNAc
Procedure, shortened: as §1

[44] = target: GlcNAc(b1-4)GlcNAc
Procedure, shortened: as §1

[45] = target: GlcNAc(b1-4)GlcNAc(b1-4)GlcNAc
Procedure, shortened: as §1

B1: CAA (Caragana arborescens) (protein)
chain: VAVEFDTFDNPDWDPRTKHIGIDVNSIRSNKTTQWGFWNRQVADVDISYEASSKTLNVSLYYPGESYIVTDVVDLKDILPEWVRIGF
Question: Which results are given for B1?
Answer: glycan array binding signal (z-score) [1]: -0.246; glycan array binding signal (z-score) [2]: -0.245; glycan array binding signal (z-score) [3]: 5.92; glycan array binding signal (z-score) [4]: 3.39; glycan array binding signal (z-score) [5]: 1.19; glycan array binding signal (z-score) [6]: -0.057; glycan array binding signal (z-score) [7]: 7.33; glycan array binding signal (z-score) [8]: -0.117; glycan array binding signal (z-score) [9]: -0.24; glycan array binding signal (z-score) [10]: -0.245; glycan array binding signal (z-score) [11]: -0.234; glycan array binding signal (z-score) [12]: -0.05; glycan array binding signal (z-score) [13]: -0.241; glycan array binding signal (z-score) [14]: -0.246; glycan array binding signal (z-score) [15]: -0.244; glycan array binding signal (z-score) [16]: -0.239; glycan array binding signal (z-score) [17]: -0.237; glycan array binding signal (z-score) [18]: -0.244; glycan array binding signal (z-score) [19]: -0.251; glycan array binding signal (z-score) [20]: -0.115; glycan array binding signal (z-score) [21]: -0.238; glycan array binding signal (z-score) [22]: -0.244; glycan array binding signal (z-score) [23]: -0.17; glycan array binding signal (z-score) [24]: -0.206; glycan array binding signal (z-score) [25]: -0.238; glycan array binding signal (z-score) [26]: -0.25; glycan array binding signal (z-score) [27]: -0.227; glycan array binding signal (z-score) [28]: -0.231; glycan array binding signal (z-score) [29]: -0.244; glycan array binding signal (z-score) [30]: -0.23; glycan array binding signal (z-score) [31]: -0.248; glycan array binding signal (z-score) [32]: -0.252; glycan array binding signal (z-score) [33]: -0.248; glycan array binding signal (z-score) [34]: -0.235; glycan array binding signal (z-score) [35]: -0.247; glycan array binding signal (z-score) [36]: -0.246; glycan array binding signal (z-score) [37]: -0.252; glycan array binding signal (z-score) [38]: -0.243; glycan array binding signal (z-score) [39]: -0.219; glycan array binding signal (z-score) [40]: -0.244; glycan array binding signal (z-score) [41]: -0.249; glycan array binding signal (z-score) [42]: -0.239; glycan array binding signal (z-score) [43]: -0.254; glycan array binding signal (z-score) [44]: -0.245; glycan array binding signal (z-score) [45]: -0.241
